Experimental data as given in PubChem BioAssay AID1347073 (National Center for Advancing Translational Sciences (NCATS), 2019).
Out of some 45,000 compounds screened, about 200 (0.44%) were called active. Another 7% or so got no clear call; they are omitted. Calls follow the shape of the dose curve; as a rule, active = well fitted activation curve with a large enough effect; inconclusive = small, poorly fitted or top-dose-only effect; inactive = no such curve, though single readings can be large or run the other way. The list shows a part of the results.

Assay: qHTS of TDP-43 Inhibitors: NCGC Sytravon Library Screen; also: 0% is about no effect; nearly all actives have a fitted effect of over 55% in size
Conditions: yeast TDP-43 toxicity rescue, BacTiter-Glo growth, 24 h; series mostly up to 46.1 µM; growth rescue (activation): at the top concentration
In short: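 TDP-43-expressing yeast, pregrown in raffinose, seeded at OD600 0.02 in galactose medium with compound for 24 hr at 30 deg C. Growth read by BacTiter-Glo luminescence, so rescue of toxicity appears as activation.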
With Cc1ccc(S(=O)(=O)N2CCCCCC2)cc1C(=O)Nc1cccnc1 the “growth rescue (activation)” value was inactive: -14.2%.
With CCc1nc2ccc(C(=O)N3CCN(C(C)=O)CC3)cn2c1N(CCC(C)C)CCN(C)C the “growth rescue (activation)” value was inactive: -4.39%.
In the case of CCCCN(C=O)c1c(CC)nc2c(OCC(=O)c3ccc(F)cc3)cccn12, the “growth rescue (activation)” value is reported as inactive: 1.6%.
For CC(C(=O)O)n1cnc2sc3c(c2c1=O)CCCC3 (stereo not drawn), the “growth rescue (activation)” value was inactive: 3.86%.
For Cc1onc(-c2ccccc2Cl)c1C(=O)Nc1ccccc1C(N)=O, the “growth rescue (activation)” value was inactive: -32.2%.
In the case of CC(=O)c1cccc(CN2CCC(n3nccc3NC(=O)CCCc3ccccc3)CC2)c1, the “growth rescue (activation)” value is reported as inactive: -6.29%.
For CCNC(=O)C1CCCN(C(=O)c2cnc3ccccc3n2)CC1 (stereo not drawn), the “growth rescue (activation)” value was inactive: -0.283%.
For O=C(Cc1ccccc1)Nc1ccc(S(=O)(=O)N2CCOCC2)cc1, the “growth rescue (activation)” value was inactive: 7.23%.
In the case of O=C(NCc1ccco1)C(c1ccc(F)cc1)N(C(=O)Cc1cccs1)c1cccnc1 (stereo not drawn), the “growth rescue (activation)” value is reported as inactive: -4.91%.
In the case of N#Cc1c(NC(=S)NC(=O)c2ccccc2)sc2c1CCCC2, the “growth rescue (activation)” value is reported as inactive: 16.4%.
In the case of CC(C)c1ccc(N(CC(=O)NCCc2ccccc2)C(=O)c2csnn2)cc1, the “growth rescue (activation)” value is reported as inactive: 8.12%.
For COc1cc(C2SCC(=O)N2c2c(C)n(C)n(-c3ccccc3)c2=O)ccc1O (stereo not drawn), the “growth rescue (activation)” value was inactive: 5.61%.
With COCCNC(=O)C1(C)CCCN(C(=O)c2c(F)ccc(C)c2F)C1 (stereo not drawn) the “growth rescue (activation)” value was inactive: 8.74%.
In the case of CC1=NCCN1S(=O)(=O)c1c(C(C)C)cc(C(C)C)cc1C(C)C, the “growth rescue (activation)” value is reported as inactive: -1.26%.
For CCOc1cc(CNc2ccc(N(C)C)cc2)cc(Br)c1OCC(=O)NC(C)(C)C, the “growth rescue (activation)” value was inactive: 13.9%.
For Cc1nc2c(OCc3ccc(C#N)cc3)cccn2c1N(C)C(=O)CCC1CCCC1, the “growth rescue (activation)” value was inactive: -6.2%.
In the case of O=C(CSc1nnnn1-c1cccnc1)Nc1cccc(Cl)c1, the “growth rescue (activation)” value is reported as inactive: 7.87%.
With Cc1cccc(NC(=O)COC(=O)c2ccc3c(=O)n4c(nc3c2)CCC4)c1 the “growth rescue (activation)” value was inactive: 21%.
With CSc1ccccc1C(=O)C1CCCN(C(=O)c2cc(C(C)C)no2)C1 (stereo not drawn) the “growth rescue (activation)” value was inactive: 22.9%.
With COc1ccc(NC(=O)c2cc(C3CCCCN3C(=O)C3CCCCC3)on2)c(C)c1 (stereo not drawn) the “growth rescue (activation)” value was inactive: 7.4%.
For CCNc1nc(-c2ccc(OC(F)F)cc2)c(C)s1, the “growth rescue (activation)” value was inactive: 12.3%.
With Oc1c(Br)cc(Br)cc1/C=N/Nc1ccc(Cl)nn1 the “growth rescue (activation)” value was inactive: -33.7%.
With COC(=O)Cc1ccc(OCC(=O)NC2CCCC2)cc1 the “growth rescue (activation)” value was inactive: 19.4%.
For Cc1ccc(CNC(=O)C2(S(=O)(=O)c3ccc(C)cc3)CC2)cc1, the “growth rescue (activation)” value was inactive: 18.3%.
For O=[N+]([O-])c1cccc(/C([O-])=C(/C(=S)Nc2cccc3ccccc23)[n+]2ccccc2)c1, the “growth rescue (activation)” value was inactive: 13.9%.
For COc1ccc(NC(=O)COC(=O)c2ccc(Cl)c(S(N)(=O)=O)c2)c([N+](=O)[O-])c1, the “growth rescue (activation)” value was inactive: 0.437%.
For CC(NS(=O)(=O)c1ccc(OCC(=O)Nc2cccc([N+](=O)[O-])c2)cc1)c1ccccc1 (stereo not drawn), the “growth rescue (activation)” value was inactive: -7.39%.
For O=c1[nH]n2c(C(F)(F)F)cc(C3CC3)nc2c1N=Nc1ccccc1, the “growth rescue (activation)” value was inactive: -4.6%.
